From PubChem BioAssay AID1508624 (National Center for Advancing Translational Sciences (NCATS), 2021)
Hit rate of the full screen: of about 48,000 compounds, about 120 (0.25%) were called active. Inconclusive results (about 4%) are left out. Calls come from the whole dose curve; as a rule, active = well fitted activation curve with a large enough effect; inconclusive = small, poorly fitted or top-dose-only effect, or another doubt; inactive = no such curve, though single readings can be large or run the other way. The list shows a part of the results.

Experiment: Primary qHTS for Identification of Small Molecule Activators of Huntingtin-Antisense Promoter Activity; note: nearly all actives have a fitted effect of over 55% in size
Conditions: HEK293 HTT-AS promoter firefly luciferase reporter (activity 0% = vehicle and -100% = no light), 24 h; series mostly up to 57.5 µM; activity change, positive = activation: at the top concentration
Summary of the method: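 HEK293 cells carrying firefly luciferase reporters were seeded at 2,500 per well in Opti-MEM and cultured for 24 h. They were then treated with compounds at up to 57.5 uM final for 24 h at 37 degrees C before Dual-Glo luminescence readout.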
For `CC(=NNC(=S)N1CCC1)c1ccccn1`, the “activity change, positive = activation” value was inactive: -35.9%. For `Cc1nn(C)c(C)c1S(=O)(=O)N(CC(=O)NCCc1ccccc1)c1ccc(C(C)C)cc1`, the “activity change, positive = activation” value was inactive: -10.7%. In the case of `Cc1ccc(C(=O)c2cn(Cc3cccc(Cl)c3)c3nc(C)ccc3c2=O)cc1`, the “activity change, positive = activation” value was inactive: -27.2%. With `CCCCNC(=O)c1nn(C)c2c1CSc1ccccc1-2` the “activity change, positive = activation” value was inactive: 18.7%. With `Cc1cc2c(cc1S(=O)(=O)NCc1ccc(F)cc1)n(C)c(=O)c(=O)n2C` the “activity change, positive = activation” value was inactive: -23%. In the case of `O=C(CSCc1ccc(F)cc1)N1CCN(c2ccccc2F)CC1`, the “activity change, positive = activation” value was inactive: 22.6%. In the case of `Cc1cccc(N2C(=O)CC(c3ccc(F)cc3)C3=C2COC3=O)c1` (configuration not stated), the “activity change, positive = activation” value was inactive: -5.95%. For `COc1ccc(NC(=O)c2ccco2)cc1NC(=O)COc1ccc(C)c(C)c1`, the “activity change, positive = activation” value was inactive: -16.8%. With `CCCNC(=O)[C@H]1O[C@H]1C(=O)N[C@H](C(=O)N1CCC[C@@H]1C(=O)OC)C(C)CC` (some centres not stated) the “activity change, positive = activation” value was inactive: -42.7%. For `COc1ccc(CNC(=O)CCNS(=O)(=O)c2ccc3c(c2)oc(=O)n3C)cc1`, the “activity change, positive = activation” value was inactive: -7.64%. In the case of `CC1(C)O[C@H]2C[C@@H]3[C@H]4CCC5=CC(=O)C=C[C@]5(C)[C@@]4(F)[C@@H](O)C[C@]3(C)[C@]2(C(=O)CO)O1`, the “activity change, positive = activation” value was inactive: -18.3%. In the case of `Cc1ccccc1C(=O)Nc1cc(C)c(O)c(-c2nc3ccccc3o2)c1`, the “activity change, positive = activation” value was inactive: 1.96%. In the case of `CCCCCCn1nnc2sc(-c3ccccc3)cc2c1=O`, the “activity change, positive = activation” value was inactive: 14.8%. In the case of `CC1CCN(CC2CCN(C(=O)NCc3ccccc3)CC2)CC1`, the “activity change, positive = activation” value was inactive: -13.5%. With `CCC1CN(C(=O)Nc2ccccc2F)c2cc(C)ccc2O1` (configuration not stated) the “activity change, positive = activation” value was inactive: -6.43%. For `COc1cc(C)ccc1OCCSc1nc2ccc(NC(=O)c3ccco3)cc2s1`, the “activity change, positive = activation” value was inactive: -33%. With `COc1ccc(C2CC(=O)c3cc(-c4nc(-c5cccc([N+](=O)[O-])c5)cs4)c(=O)n(-c4ccccc4)c3C2)cc1` (configuration not stated) the “activity change, positive = activation” value was inactive: -9.51%. In the case of `CCN1c2ccccc2-c2nc(SCC(=O)Nc3cccc(C)c3C)ncc2S1(=O)=O`, the “activity change, positive = activation” value was inactive: -18.5%. In the case of `CCn1cc(C(=O)N(C)Cc2ccccc2)c(=O)c2cc(S(=O)(=O)N3CCc4ccccc4C3)ccc21`, the “activity change, positive = activation” value was inactive: -16.7%. For `COc1ccc(OC)c(NC(=O)CSc2nc(=O)n(CCN(C)C)c3c2CCC3)c1`, the “activity change, positive = activation” value was inactive: -7.82%. In the case of `COc1cc(NC(=O)CC2C(=O)N(c3ccccc3)C(=O)N2Cc2ccc(F)cc2)cc(OC)c1` (configuration not stated), the “activity change, positive = activation” value was inactive: -12%. For `CCc1ccccc1NC(=O)N1CCOc2ccccc21`, the “activity change, positive = activation” value was inactive: -24.3%. For `O=C(Cn1ncc2c([nH]c3ccccc32)c1=O)NCCCN1CCN(c2ccc(F)cc2)CC1`, the “activity change, positive = activation” value was inactive: -16%. In the case of `CCc1ccc(-n2c(=O)c3c4c(sc3n(Cc3ccccc3C#N)c2=O)CCCC4)cc1`, the “activity change, positive = activation” value was inactive: 5.85%. In the case of `CCCn1c2ccccc2c2cnn(CC(=O)Nc3cc(C)c(Cl)cc3OC)c(=O)c21`, the “activity change, positive = activation” value was inactive: -7.89%. For `CC1CCc2c(sc(NC(=O)Cc3ccccc3)c2C(=O)Nc2ccc(Cl)cc2)C1` (configuration not stated), the “activity change, positive = activation” value was inactive: -3.31%. With `Cc1ccc(-c2nn3c(-c4ccccc4C)nnc3c3ccccc23)cc1` the “activity change, positive = activation” value was inactive: -42.3%. For `Cc1cn2c(=O)cc(COC(=O)c3ccc(NC(=O)COc4ccccc4C)cc3)nc2s1`, the “activity change, positive = activation” value was inactive: -9.06%. For `CCOC(=O)c1cc(-c2ccccc2)n(-c2cccc(C(=O)Nc3cccc(SC)c3)c2)c1C`, the “activity change, positive = activation” value was inactive: -17.8%. In the case of `CN1C(=O)C(Cc2c[nH]c3ccccc23)NC1=S` (configuration not stated), the “activity change, positive = activation” value was inactive: 13.3%. In the case of `CCC(=O)Oc1ccc2c(c1)CC[C@@H]1[C@@H]2CC[C@@]2(C)[C@H]1C[C@@H](OC(=O)CC)[C@@H]2OC(=O)CC`, the “activity change, positive = activation” value was inactive: 1.14%. For `COc1ccc(CCC(=O)NCCc2csc(-c3ccc(F)cc3)n2)cc1`, the “activity change, positive = activation” value was inactive: -4.32%. With `COc1cccc(CNC(=O)C2CCC(CNS(=O)(=O)c3ccc4c(c3)CCCC(=O)N4)CC2)c1` (configuration not stated) the “activity change, positive = activation” value was inactive: 0.092%. In the case of `CCN(CC)C(=O)Cn1c(=O)cc(C)c2c(C)nn(-c3cccc(Cl)c3C)c21`, the “activity change, positive = activation” value was inactive: 4.03%. For `Cc1ccc(NC(=O)CSc2nnc3scc(-c4ccc(Cl)cc4)n23)cc1`, the “activity change, positive = activation” value was inactive: -7.79%. With `CCOC(=O)C1=C(CN2CCN(c3ccc(OC)cc3)CC2)NC(=O)NC1c1ccc(OC)cc1` (configuration not stated) the “activity change, positive = activation” value was inactive: -24.5%. For `CCN(CC)CCCNc1oc(/C=C/c2ccc(OC)c(OC)c2)nc1C#N`, the “activity change, positive = activation” value was inactive: -16%. In the case of `COc1ccc(NC(=O)Cn2cc(S(=O)(=O)N3CCN(c4ccccc4F)CC3)c3ccccc3c2=O)cc1Cl`, the “activity change, positive = activation” value was inactive: -12%. For `CCOc1ccc(-c2cc(C(=O)N3CCN(c4cc(Cl)ccc4C)CC3)c3ccccc3n2)cc1`, the “activity change, positive = activation” value was inactive: -4.53%. With `CNc1c(NC(=O)c2ccc(OC)c(OC)c2)c(=O)oc2ccccc12` the “activity change, positive = activation” value was inactive: -1%. For `CN(C)c1nc(Cc2ccc(NC(=O)c3ccc(C(F)(F)F)cc3)cc2)nc(N(C)C)c1CC(=O)O`, the “activity change, positive = activation” value was inactive: -5.42%. In the case of `Cc1cc2c(cc1S(=O)(=O)CCC(=O)N1CCC(C)CC1)OCC(=O)N2`, the “activity change, positive = activation” value was inactive: -9.37%. With `CCc1ccc(C(=O)c2cn(CC(=O)Nc3ccc4c(c3)OCO4)c3ccc(CC)cc3c2=O)cc1` the “activity change, positive = activation” value was inactive: -13.6%. For `Cc1ccc(NC(=O)C(Cc2c[nH]c3ccccc23)NC(=O)OC(C)(C)C)c(C)c1` (configuration not stated), the “activity change, positive = activation” value was inactive: -26.4%. In the case of `Cc1cc(C)cc(NC(=O)NCCc2c(C)nn(C)c2C)c1`, the “activity change, positive = activation” value was inactive: 0.649%. With `Cc1cc(Nc2ccccc2F)n2nc(-c3ccccc3)nc2n1` the “activity change, positive = activation” value was inactive: -9.24%. In the case of `CCOc1ccc(Nc2oc(-c3ccc(COc4ccc(OC)cc4)o3)nc2C#N)cc1`, the “activity change, positive = activation” value was inactive: 2.3%.
